Data as given in PubChem BioAssay (NCATS).
Inconclusive results, whose numbers are uncertain, are shown with a selection of clear calls. Potencies of inconclusive entries are doubtful fits and often do not repeat. Activity calls are given as the source filed them. Calls come from the whole dose curve; as a rule, active = well fitted inhibition curve with a large enough effect; inconclusive = small, poorly fitted or top-dose-only effect; inactive = no such curve, though single readings can be large or run the other way.
Potency is the fitted concentration of half-maximal effect; tags give direction and shape of the fitted curve.

The molecules below were run against Retinaldehyde dehydrogenase 3 (Homo sapiens) (UniProt P47895) (assay: qHTS for Inhibitors of the Aldehyde Dehydrogenase Family (ALDH1A3) Primary screen (AID 2061315;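 for activity change, negative = inhibition: plate controls were DMSO vehicle for no effect and reference inhibitor for full effect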)). Settings: ALDH inhibition qHTS; activity change, negative = inhibition: at 56 µM (top of the series) unless noted.
Cc1nc(Nc2ccc(F)cc2)nc(N2CCc3ccccc3C2C)c1C (stereo unspecified) was tested, and the “activity change, negative = inhibition” value was inactive: -5.52%. With CN1CCC[C@@H]1Cc1c[nH]c2ccc(CCS(=O)(=O)c3ccccc3)cc12 the Potency was inconclusive: 10 µM [inhibitor, partial curve]. Nc1ncnc2c1ncn2[C@H]1O[C@@H](C(=O)N2CCN(CC(=O)Nc3cccc4c3CNC4=O)CC2)[C@H](O)[C@@H]1O was tested, and the “activity change, negative = inhibition” value was inactive: -14.8%. For O=C(CC1CC(c2ccc(F)cc2F)=NO1)N1CCOCC1 (stereo unspecified), the Potency was inconclusive: 25.1 µM [inhibitor, partial curve]. For O=C(Nc1nc2ccc([N+](=O)[O-])cc2s1)C1CCCCC1, the Potency was inconclusive: 4.47 µM [inhibitor, partial curve]. CC(=O)NCC1CN(c2ccc(-c3ccc(CNCc4cn[nH]n4)cc3)c(F)c2)C(=O)O1 (stereo unspecified) was tested, and the Potency was inconclusive: 2.82 µM [inhibitor, full curve].
